According to US7592316B2, “Peptides as NS3-serine protease inhibitors of hepatitis C virus” (Schering Corporation, priority 2000, dated 2009):
*1 amine or outer side, *2 acyl side, *3 side chain or, on linkers, in order; H or OH if unused. Where a SMILES comes first, the peptide text is derived from it. [ ]: non-standard residue; d: D form. The star is where a group is joined. ξ: configuration not given here. Pro(3S,4R-CMe2) = CC1(C)[C@H]2[C@@H](C(=O)O)NC[C@H]21; Pro(4R-isopentyl) = CC(C)CC[C@H]1CN[C@H](C(=O)O)C1; Igl = N[C@H](C(=O)O)C1Cc2ccccc2C1; X4 = CCCCC(N[*:1])C(=O)C(=O)[*:2]; X2 = CCCC(N[*:1])C(=O)C(=O)[*:2]; Tle = CC(C)(C)[C@H](N)C(=O)O; ξPhg = NC(C(=O)O)c1ccccc1; Boc = CC(C)(C)OC(=O)*

Target: HCV NS3/NS4A protease (strain 1a) (Hepatitis C virus genotype 1a, UniProt P27958)
Test: biochemical
Conditions: Table 5; HCV NS3/NS4A protease, 30° C., pH 6.5; read-out: Ki* Range

Ki [µM]	Structure (SMILES)
0.001 to 0.1	C=CCCC(NC(=O)[C@@H]1C2[C@@H](CN1C(=O)[C@@H](NC(=O)OC(C)(C)C)C(C)(C)C)C2(C)C)C(=O)C(=O)NCCC(=O)OC(C)(C)c1ccccc1 (some centres unmarked)
0.001 to 0.1	C=CCNC(=O)C(=O)C(CCC)NC(=O)[C@@H]1[C@H]2[C@@H](CN1C(=O)C(NC(=O)OC1CCC(C)C1)C1CCCCC1)C2(C)C (some centres unmarked)

Same assay, conditions: Table 5; HCV NS3/NS4A protease, spectrophotometric assay, 30° C., pH 6.5; read-out: Ki* Range

Ki [µM]	Structure (SMILES)
> 1	CCCC(NC(=O)[C@@H]1C2CCC(C2)N1C(=O)[C@H](NC(=O)OC(C)(C)C)C(C)(C)C)C(=O)C(=O)OC (some centres unmarked)
> 1	COC(=O)C(=O)C(CC1CC1)NC(=O)[C@@H]1[C@@H]2[C@H](CN1C(=O)[C@@H](NC(=O)OC(C)(C)C)C1CCC(F)(F)CC1)C2(C)C (some centres unmarked)
> 1	CCC(NC(=O)[C@@H]1[C@@H]2[C@H](CN1C(=O)[C@@H](NC(=O)OC(C)(C)C)C(C)(C)C)C2(C)C)C(=O)C(=O)O (some centres unmarked)
0.101 to 1	C=CCNC(=O)C(=O)C(CCC)NC(=O)[C@@H]1[C@@H]2[C@H](CN1C(=O)[C@@H](NC(=O)OCC1CC1)C1CCCCC1)C2(C)C (some centres unmarked)
0.101 to 1	C=CCNC(=O)CNC(=O)C(=O)C(CCC)NC(=O)[C@@H]1[C@@H]2[C@H](CN1C(=O)[C@@H](NC(=O)OC(C)(C)C)C(C)(C)C)C2(C)C (some centres unmarked)
> 1	C=CCNC(=O)C(=O)C(CCC)NC(=O)[C@@H]1[C@H]2[C@@H](CN1C(=O)[C@@H](NC(=O)OCc1ccccc1)C1Cc3ccccc3C1)C2(C)C (some centres unmarked)
0.001 to 0.1	CC1(OC(=O)N[C@H](C(=O)N2C[C@H]3[C@@H]([C@H]2C(=O)NC(CC2CC2)C(=O)C(N)=O)C3(C)C)C2CCCCC2)CC1 (some centres unmarked)
0.101 to 1	C=CCNC(=O)C(=O)C(CCC)NC(=O)C1C2C(CN1C(=O)C(NC(=O)OC(C)(C)C)C1CCC(F)(F)CC1)C2(C)C (centres unmarked)
0.001 to 0.1	CCCC(NC(=O)[C@@H]1[C@H]2[C@@H](CN1C(=O)C(NCCc1ccccc1)C(C)(C)C)C2(C)C)C(=O)C(=O)NCC(=O)N[C@H](C(=O)N(C)C)c1ccccc1 (some centres unmarked)
0.001 to 0.1	CC(C)CC(NC(=O)C1C2CCC(C2)N1C(=O)C(NC(=O)OC(C)(C)C)C1CCCCC1)C(=O)C(=O)NCC(=O)NC(C(=O)N(C)C)c1ccccc1 (centres unmarked)
0.101 to 1	CC(C)(C)OC(=O)N[C@H](C(=O)N[C@@H](CC1CC1)C(=O)NC(CC1CC1)C(=O)C(N)=O)C1CCCCC1 (some centres unmarked)

Structure (SMILES)	Ki [µM]
CCCC(NC(=O)[C@@H]1C[C@@H](CCC(C)C)CN1C(=O)[C@@H](NC(=O)OC(C)(C)C)C(C)(C)C)C(=O)C(=O)NCC(=O)NC(C(=O)N(C)C)c1ccccc1 (stereo partly drawn) (Boc-[Tle][Pro(4R-isopentyl)][X2]G[ξPhg]-NMe2)	0.101 to 1
CCCCC(NC(=O)[C@@H]1[C@H]2[C@@H](CN1C(=O)[C@@H](NC(=O)OC(C)(C)C)C(C)(C)C)C2(C)C)C(=O)C(=O)NCC(=O)N[C@H](C(=O)N(C)C)C1Cc2ccccc2C1 (stereo partly drawn) (Boc-[Tle][Pro(3S,4R-CMe2)][X4]G[Igl]-NMe2)	0.101 to 1

Same assay, conditions: Table 6; HCV NS3/NS4A protease, 30° C., pH 6.5; read-out: Ki*

Ki [µM]	Structure (SMILES)
0.001 to 0.1	CC1(OC(=O)N[C@H](C(=O)N2C[C@H]3[C@@H]([C@H]2C(=O)NC(CC2CC2)C(=O)C(N)=O)C3(C)C)C2CCCCC2)CCCCC1 (some centres unmarked) [drawing 2307]
0.101 to 1	CC(=O)OCC(C)(C)NC(=O)N[C@H](C(=O)N1C[C@H]2[C@@H]([C@H]1C(=O)NC(CC1CCC1)C(=O)C(N)=O)C2(Cl)Cl)C1CCCCC1 (some centres unmarked)
0.101 to 1	CC(C)(C)OC(=O)N[C@H](C(=O)N1C[C@@H]2CC3(CC3)C[C@@H]2[C@H]1C(=O)NC(CC1CCC1)C(=O)C(N)=O)C(C)(C)C (some centres unmarked)
0.001 to 0.1	CN(C)C(=O)[C@@H](NC(=O)CNC(=O)C(=O)[C@H](CC1CCC1)NC(=O)[C@@H]1[C@H]2OC(C)(C)O[C@H]2CN1C(=O)[C@@H](NC(=O)NC(C)(C)C)C(C)(C)C)c1ccccc1
0.001 to 0.1	CN(C)C(=O)[C@@H](NC(=O)CNC(=O)C(=O)C(CC1CCC1)NC(=O)[C@@H]1[C@H]2CC(C)(C)O[C@H]2CN1C(=O)[C@@H](NC(=O)OC(C)(C)C)C1CCCCC1)c1ccccc1 (some centres unmarked) [drawing 2355]
0.001 to 0.1	C=CCCC(NC(=O)[C@@H]1[C@@H]2[C@H](CN1C(=O)[C@@H](NC(=O)NC(C)(C)C)C(C)(C)C)C2(C)C)C(=O)C(=O)NCCC(=O)NCc1ccccc1 (some centres unmarked)
0.101 to 1	CC(C)(C)NC(=O)N[C@H](C(=O)N1C[C@H]2[C@@H]([C@H]1C(=O)NC(CC1CCC1)C(=O)C(=O)NCCC(=O)OC(C)(C)c1ccccc1)C2(Cl)Cl)C1CCCCC1 (some centres unmarked)
0.101 to 1	CC1(C)C2[C@@H](C(=O)NC(CC3CCC3)C(=O)C(N)=O)N(C(=O)[C@@H](NC(=O)C3CC(=O)c4ccccc43)C3CCCCC3)C[C@@H]21 (some centres unmarked)
